From the supplement of paper PMC7125110
± gives the standard error. This sample is rich in variants without activity.

B1: glmS ribozyme (parent)
chain: AUAAAAGCGCCAGAACUACAGAAAUGUAGUUGACGAGGAGGAGGUUUAUCGAAUUUUCGGCGGAUGCCUCCAAA

Variants of: B1
Test: self-cleavage kobs at 10000 uM GlcN6P; higher = faster cleavage; RNA array
Conditions: with glucosamine-6-phosphate
Method in brief: (§1)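 On sequenced MiSeq chips, barcoded ribozyme variants were made in situ by E. coli RNA polymerase and followed at 37 °C through a hybridised Cy3 probe. Glucosamine-6-phosphate was flowed in at 40 μM to 10 mM in HEPES/KCl/Mg(OAc)2 buffer. Exponential fits to normalised per-tile medians gave kobs, and weighted Michaelis–Menten fits gave kcat and KM.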

Row | Variant | self-cleavage kobs at 10000 uM GlcN6P [s⁻¹]
1 | A6U C16U A39G G44U C50U G60U | < 1e-05
2 | A12U G38A G60U | < 1e-05
3 | G32U G44U G63C | < 1e-05
4 | C10U U46A | < 1e-05
5 | G9U A14U U31A U46G G59U G66C C67G | < 1e-05
6 | G7U U49C U69A | < 1e-05
7 | G59A U65C C70A | < 1e-05
8 | C16G G29U C58A | 0.000585 ± 0.00014
9 | G41U G51U C67A | < 1e-05
10 | A15U A39G U57C | 6.65e-05 ± 1.8e-05
11 | U31A G38U U49G U65G | < 1e-05
12 | G38A A39C U57G | < 1e-05
13 | A6C G26U G37C G38C | < 1e-05
14 | A6C G13A C34A G44A G60U | < 1e-05
15 | C50U A53U C61U C67U | < 1e-05
16 | G35A A36G G51U | < 1e-05
17 | G7C U31C A36G G40C C68G | < 1e-05
18 | C10A A12G G13A | < 1e-05
19 | A15U C34G U55A | < 1e-05
20 | A33U G35C G62U C67U | < 1e-05
21 | C11U A15G C16U C50G U54G U56A U69C | < 1e-05
22 | G7U G32C C61G | < 1e-05
23 | C16A G41A G51C | < 1e-05
24 | G13C U56G A64G C67A | 3.32e-05 ± 1.4e-05

Row | Variant | self-cleavage kobs at 10000 uM GlcN6P [s⁻¹]
25 | A14U A42G C58A | 0.000409 ± 0.00014
26 | C8A A12G A36U A53U | < 1e-05
27 | C8G U47A A64U C71A | < 1e-05
28 | C8A G38U G40U A42C C58G | < 1e-05
29 | C11A U31C U45A | 4.34e-05 ± 1.5e-05
30 | A6U U30C G32U | < 1e-05
31 | G13U A48U C70A | < 1e-05
32 | C10G C16U C70A | < 1e-05
33 | C10G U55G G63C | < 1e-05
34 | C10G G29C U30C G35C C70U | < 1e-05
35 | A33G G62U C68U | < 1e-05
36 | C8U G43A G60U | < 1e-05
37 | A33C U49G C67G | < 1e-05
38 | G59U C61G | < 1e-05
39 | A6C G51U A52C | < 1e-05
40 | C8U A15C G29A G38U C70A | < 1e-05
41 | C10U A42C A52U | < 1e-05
42 | C11G U31C A36C | < 1e-05
43 | A6G C34G A36U A48C | < 1e-05
44 | G37C A42G U65C | < 1e-05
45 | A12G A14C A15G | 0.000141 ± 3e-05
46 | C8G C11U C58A | < 1e-05
47 | A6G U46A U69A | < 1e-05
48 | A15U A52U C68A | < 1e-05

Row | Variant | self-cleavage kobs at 10000 uM GlcN6P [s⁻¹]
49 | A33U A36C G38A A52U | < 1e-05
50 | A48U A52C G60A A64C | < 1e-05
51 | C58A C61A C70U | < 1e-05
52 | C11G A53U G60A G63A A64U | < 1e-05
53 | C34A A42U U69C C71U | < 1e-05
54 | G13U A14G C61U C70G | < 1e-05
55 | A12G C50U A52G U69G C71A | 3.23e-05 ± 1.6e-05
56 | C10A A14U A52C | < 1e-05
57 | G63U C68A | < 1e-05
58 | C10G U30A G44A | < 1e-05
59 | A12G U30G U47C U49C | < 1e-05
60 | A6C U30G G35U | < 1e-05
61 | G29C U46A | 7.43e-05 ± 1.7e-05
62 | A39U G44A C67G | 0.00582 ± 0.0014
63 | C34U G35U A48C | < 1e-05
64 | A6C U31C G35A A42C | < 1e-05
65 | A6C U30A A33C G60U | < 1e-05
66 | A12G G35U A53G | < 1e-05
67 | A12U C34A A39U C70U | < 1e-05
68 | A33U A52U C71G | < 1e-05
69 | C10G A14U C16A U54G C61U G62U | < 1e-05
70 | A12G C16U A42U C61A | < 1e-05
71 | A6G U55G C70U | 8.99e-05 ± 1.5e-05
72 | C50G A53U C71G | 0.000148 ± 4e-05

Row | Variant | self-cleavage kobs at 10000 uM GlcN6P [s⁻¹]
73 | G41C C67U C70A | 2.88e-05 ± 1.3e-05
74 | A36C G40A C68G | < 1e-05
75 | C34A G66U C67G | < 1e-05
76 | G13A A42G | 0.000882 ± 0.00023
77 | A36C G41A A48C C67U | < 1e-05
78 | G9A A33U U69C | < 1e-05
79 | G37A G62A G63U | < 1e-05
80 | U55G C58G | 9.57e-05 ± 1.1e-05
81 | G32A A33U A36C | < 1e-05
82 | A39C U55A A64U U65G | < 1e-05
83 | A14U C34G A48U | < 1e-05
84 | A14U A48C U56G C68A | < 1e-05
85 | G60U C61U C71G | < 1e-05
86 | A6C A12C A53U U57C | < 1e-05
87 | G13U G35U C58G C61G | < 1e-05
88 | G29C A36C | < 1e-05
89 | G9U U30C U31C G43A U65A C68U C71A | < 1e-05
90 | G13A A36C G38U | < 1e-05
91 | G35C G41A U45A | < 1e-05
92 | C11G G29U C34A A36U G37U G44C C68U | < 1e-05
93 | A33C C50A C67G C68G | 7.88e-05 ± 2.1e-05
94 | G7U G9U G44A C68G | < 1e-05
95 | G51U G59C G66U | < 1e-05
96 | U47C A48G A52C G62A | < 1e-05

Row | Variant | self-cleavage kobs at 10000 uM GlcN6P [s⁻¹]
97 | A6C G7A G35U G37A | < 1e-05
98 | U30C G63C C71U | < 1e-05
99 | A12C G41A U46G | 0.000334 ± 7.8e-05
100 | G37U C58U | < 1e-05
101 | U30A G38A C70U | < 1e-05
102 | G43C U46A A48C C58U | < 1e-05
103 | A12G G29U G35C | < 1e-05
104 | G13C G35U U47C A48C C61G C70U | < 1e-05
105 | C16U G40U G66U | 4.28e-05 ± 1.2e-05
106 | G35U G38U U49G C50A | < 1e-05
107 | A12U A52C A53U C70G | < 1e-05
108 | C10G A42C U49G A52G U69G C70U | < 1e-05
109 | A36G G41C U56C C67G C68G | < 1e-05
110 | C8G G9U U30A A42G | < 1e-05
111 | G35C C50G A53C | 3.34e-05 ± 8.6e-06
112 | A12U A14C A36C | < 1e-05
113 | A6C U46G G63C | < 1e-05
114 | G7U C11A C50A | < 1e-05
115 | G9C C16U G60C | < 1e-05
116 | A12G A36C C67G | < 1e-05
117 | C16A U30C C61G | < 1e-05
118 | U47G U57G | 5.61e-05 ± 1.2e-05
119 | G7C G35A A42C | < 1e-05
120 | C10G A15U G29C A36U U55C | < 1e-05

Row | Variant | self-cleavage kobs at 10000 uM GlcN6P [s⁻¹]
121 | A36G C50U C58U | < 1e-05
122 | G44C U65G C67U | 0.000247 ± 8.5e-05
123 | G7U G9A G35C A42U C58U G62A | < 1e-05
124 | A6G C11U G32A G44A G51C C58U G60U C61G G63U | < 1e-05
125 | G9A G29C C61A | < 1e-05
126 | U31G A53G U69C | 0.00324 ± 0.00093
127 | G13C G38U A48U C50A | < 1e-05
128 | C11U A48C G60U G63U | < 1e-05
129 | A33C U46G A52U | < 1e-05
130 | C34A A36U G60C | < 1e-05
131 | A36C C61A | < 1e-05
132 | G44A G51U U54C G62C | < 1e-05
133 | C11U G29C A33U G60C | < 1e-05
134 | A12G U47G A48U G60A | < 1e-05
135 | G35U G63U A64G | < 1e-05
136 | G38A G63A | < 1e-05
137 | G43C U56G | < 1e-05
138 | U47G A48U U56G C68A | 4.62e-05 ± 1.6e-05
139 | G9C A14U A20C G32A G40C A52G U54G G60C | < 1e-05
140 | U30A A48U A53G G63U | < 1e-05
141 | A36U A53U U65C | < 1e-05
142 | A36C U57A | < 1e-05
143 | A12U G40U U54A | 0.000861 ± 0.00024

Variants of: B1
Test: self-cleavage kobs at 2500 uM GlcN6P; higher = faster cleavage; RNA array
Conditions: with glucosamine-6-phosphate
Method in brief: as §1

Row | Variant | self-cleavage kobs at 2500 uM GlcN6P [s⁻¹]
144 | A42C C58U C71G | < 1e-05
145 | G43U C50U C71U | < 1e-05
146 | U55G C70U C71G | 7.27e-05 ± 1.7e-05
147 | U49C G60U C67G | < 1e-05
148 | G51U A53G G59U | < 1e-05
149 | U49C G63C C67A | < 1e-05
150 | U46G C61U A64G | < 1e-05
151 | G43U A48G C50G C67U | < 1e-05
152 | U55G C58G | 4.5e-05 ± 8.6e-06
153 | A48U G60C U65G | < 1e-05
154 | U45G U56C C70U C71A | < 1e-05
155 | U49G U69A | 8.22e-05 ± 2.2e-05
156 | U49A U65C | < 1e-05
157 | G51U G59C G66U | < 1e-05
158 | U56C C67A C71G | < 1e-05
159 | U47C A48G A52C G62A | < 1e-05
160 | U46C G51C C58U C67A | < 1e-05
161 | U47C U57C C71G | < 1e-05
162 | U49A C58G G63U | < 1e-05
163 | U47G U57G | 6.68e-05 ± 2.2e-05
164 | U47G A48U U56G C68A | 0.000324 ± 0.00012
165 | A52U C61U C70A | < 1e-05
166 | U46A A64G G66A C71G | 6.58e-05 ± 2.6e-05
167 | G44C U55C C70G | < 1e-05
168 | A52U C61A G62C | < 1e-05
